Reference: PubChem BioAssay AID1159614 (National Center for Advancing Translational Sciences (NCATS), 2016)
The whole screen tested about 45,000 compounds, of which about 65 (0.1%) were called active. Calls come from the whole dose curve; as a rule, active = well fitted activation curve with a large enough effect; inconclusive = small, poorly fitted or top-dose-only effect; inactive = no such curve, though single readings can be large or run the other way. Some of the results follow.

molecular target: Galactocerebrosidase (Homo sapiens) (UniProt P54803); experiment: A Novel Cell-Based Assay to Identify Small Molecules for B -Galactocerebrosidase; settings: 145M-Twi-hGALC-G270D cells (Twitcher mouse brain line with human GALC G270D), HMU-beta-Gal fluorescence, 48 h; series mostly up to 57.5 µM; activation: at the top concentration; note: 0% is about no effect; nearly all actives have a fitted effect of over 65% in size
UniProt P54803, sequence (P54803 whole entry, looked up): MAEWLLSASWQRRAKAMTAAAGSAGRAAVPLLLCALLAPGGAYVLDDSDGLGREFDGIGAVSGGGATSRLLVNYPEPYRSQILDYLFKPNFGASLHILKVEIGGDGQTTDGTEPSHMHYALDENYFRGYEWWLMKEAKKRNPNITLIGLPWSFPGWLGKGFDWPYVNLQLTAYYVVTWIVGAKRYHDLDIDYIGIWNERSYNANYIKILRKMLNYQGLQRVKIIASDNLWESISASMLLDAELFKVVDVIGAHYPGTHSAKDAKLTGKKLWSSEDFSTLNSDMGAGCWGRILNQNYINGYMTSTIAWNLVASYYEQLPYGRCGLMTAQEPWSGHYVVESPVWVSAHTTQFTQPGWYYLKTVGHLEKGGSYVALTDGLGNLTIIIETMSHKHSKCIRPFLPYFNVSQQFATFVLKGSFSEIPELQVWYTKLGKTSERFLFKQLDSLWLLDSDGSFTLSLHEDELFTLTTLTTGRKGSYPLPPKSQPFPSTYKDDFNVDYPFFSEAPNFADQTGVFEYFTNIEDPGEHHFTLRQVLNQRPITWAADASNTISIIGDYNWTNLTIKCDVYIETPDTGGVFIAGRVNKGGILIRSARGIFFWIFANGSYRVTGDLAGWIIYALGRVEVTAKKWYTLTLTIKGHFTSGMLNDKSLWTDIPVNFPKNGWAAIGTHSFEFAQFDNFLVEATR
Procedure, shortened: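 Brain-derived Twitcher mouse 145M-Twi cells stably expressing human GALC-G270D or wild-type GALC, treated live, then residual GALC activity read by fluorescence of HMU-b-Gal substrate (0.1 mM final) in citrate-phosphate buffer pH 5.2 with sodium taurocholate. Signal increase indicates enhancement.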

activation, inactive:
CCN(CC)c1ccc2cc(-c3nc(-c4ccc(Cl)cc4Cl)cs3)c(=O)oc2c1 -18.4%, CCOC(=O)CSC1=Nc2ccccc2C2=NC(CCC(=O)NCc3ccc(OC)cc3)C(=O)N12 (stereo unspecified) -20.2%, Oc1c(C(c2ccccc2F)N2CCN(c3ccccc3F)CC2)sc2nc(-c3ccco3)nn12 (stereo unspecified) -2.06%, Cc1ccccc1N1CCN(S(=O)(=O)c2ccccc2)CC1 -14.3%, Cc1ccc(-c2nc(SCC(=O)NCC3CCCO3)c3c(=O)n(C)c(=O)n(C)c3n2)cc1 (stereo unspecified) -8.97%, Cc1cc(OCCn2c(CCNC(=O)C3CCCCC3)nc3ccccc32)ccc1Cl -17.9%, COc1ccc(CNC(=O)CCC2N=C3c4ccccc4N=C(SCc4ccccc4F)N3C2=O)cc1 (stereo unspecified) -16.2%, Cc1cc(C)c(NC(=O)CSc2nccn2-c2cccc(Cl)c2)c(C)c1 -15.3%, COc1ccc(C)cc1NS(=O)(=O)c1ccc2c3c(cccc13)C(=O)N2 -3.91%, COc1ccccc1Cn1ccn(Cc2ccc(C)cc2)c(=O)c1=O -3.62%, Cc1ccccc1OCc1nc2c3cnn(-c4ccccc4F)c3ncn2n1 -6.17%, COCCNC(=O)CSc1nc2cc3c(cc2c(=O)n1CCCC(=O)NCc1ccc2c(c1)OCO2)OCO3 -1.61%, O=C(NC1CCCC1)c1ccc2c(=O)n(Cc3ccccc3)c(SCc3cccc([N+](=O)[O-])c3)nc2c1 6.78%, Cc1ccccc1NC(=O)CSc1nc(-c2ccccc2)cn1-c1ccccc1F -17.8%, COc1cccc(-n2c(-c3ccccc3F)nc3c(cnn3-c3ccc(C)cc3)c2=O)c1 -5.72%, CCOC(=O)C(Cc1ccccc1)NC(=O)CCc1c(C)nc2nc(C)nn2c1C (stereo unspecified) -0.411%, COc1ccc(NC(=O)c2sc3nc4c(cc3c2N)CCCCCC4)cc1 -17.7%, Cc1ccc(Cl)cc1N1CCN(C(=O)Cn2c(-c3cccs3)cc3cc(F)ccc32)CC1 0.971%, CCOC(=O)Cn1c(=O)cc(C(F)(F)C(F)(F)F)c2c(C)nn(CC)c21 -9.7%, CCc1ccc(OCC(=O)Nc2cc(-c3ccc(C)cc3)no2)cc1 -9.82%, COc1ccc(CNC(=O)CSc2ncc3c(n2)-c2cc(Cl)ccc2N(Cc2ccccc2)S3(=O)=O)cc1 -7.9%, Cc1ccc(OCC(=O)Nc2ccc3nc(SCC(=O)Nc4ccc(C)cc4C)sc3c2)cc1 -19.1%, CC(C)(C)c1ccc(C(=O)NC2(C(F)(F)F)NC(=O)N(CCc3ccccc3)C2=O)cc1 (stereo unspecified) -1.69%, CCCNC(=O)c1ccccc1NC(=O)c1nsc2ccccc12 -5.19%, COc1cccc(NC(=O)CSc2ncc3c(n2)-c2ccc(Cl)cc2N(C)S3(=O)=O)c1 -2.92%, COC(=O)c1sccc1S(=O)(=O)N1CCN(c2ccc(C)cc2C)CC1 -12.1%
